Our source for the self-cleavage values is the RNAGym collection of RNA variant scans (doi:10.7554/elife.90254).

The source gives no read counts; variants with many changes may rest on few reads.

B1: LINE1-mini (parent)
chain: GGCAGAGCUCAACACAGCGUGGCAAAGUGGCUGUGGCUAGACUGCC

Variants of B1 are the subject of the series. The series can be described thus: self-cleavage, relative activity (ratio to wild type); higher = more cleavage; in vitro, sequencing; the parent is a self-cleaving ribozyme.
With GGCAGAGCUCUAAGCAGCGUGGCAAAGUGGCUGUGUCUAGACUGCC, the self-cleavage worked out at 0.05. GGCAGAGCUCUACACAGCGUGGCAAAGUGGCUGUAGCUAGACUACC: the self-cleavage was determined as 0.04. In the case of GGCAGAGCUCUACACAGAGUGGCAAAGAGUCUGUGGCCAGACUGCC, the self-cleavage amounted to 0.02. Next, GGCAGAGCUCUACACAGCGUCGUAAAGUGGCUGUGGCUUGACUGCC: 0.04.

GGCAGAGCUCUGCACAGCGUGGCAAAGUGGCUGUGGCUAGACUGCG: the self-cleavage was 0.05. Next, GGCAGAGCUCUGCACAGCGUAGUAAAGUGUCUGGGGCUAGACUGCC: 0.01; GGCAGAGCUCGACACAGCGUGGCAAAGUGGCGGUGUCUAGACUGCC: 0.03. Turning to GGCAGAGCUCGACACAGCGCGGCAUAGUGGCUUUGGCUAGUCUGCC, the self-cleavage was 0. The value for GGCAGAGCUCUACACAGCGUGAAAAAGUGGGUGUGGCUAGACUGCC was 0.02; that for GGCAGAGCUCUACACAACGUAGCAAAGUGGCUGUGGCUAGACAGCC was 0.01. The value for GGCAGAGCUCGACACAGCGUGGCAAAGUAGCGGUGGCUAGACUGCC was 0.03.

As for GGCAGAGCUCUACACAGCGUGUCAUAGUGGAGGUGGCUAGACUGCC, the self-cleavage is 0.01. The value for GGCAGAGCUCUACAGAGCGUGGCAAAGUGACUGUGGCUAGACUGCC was 0.01. In the case of GGCAGAGCUCUACACAGCGGGGGAAAUUGGCUGUGGCUAGAGUACC, the self-cleavage is 0.01.

Regarding GGCAGAGCUCUACACAGCCUAGUAAAGUGCCUGUGGCUAGACUGCC, the self-cleavage worked out at 0.58.

On to GGCAGAGCUCGACACAUCAUGGCAAACUGGCUGUGGCUAGACUGCC, for which the self-cleavage is 0.01. Next, GGCAGAGCUCUACACACCGUGGCAAAGUGUCUGUGGCUAGACUGCC: 0.01; GGCAGAGCUCUACACAGUGUGGCAAAGUGGCUCUGGCUUGACUGCC: 0. As to GGCAGAGCUCUACACAGGGUGGCAAACUGGCUGUGGCUAGACUGCC, the self-cleavage turned out to be 0.02. The value for GGCAGAGCUCUACACAGGGUGGCAAAAUGGCUGUGGCUAGACUGCC was 0.05; that for GGCAGAGCUCUACACAGCGUGGCAAAGUGGCUGUGGCUAGCCCGCC was 0. Next, GGCAGAGCUCUACACAGCGUUGCAGAGUGGCUGUGGCUAGACAGCC: 0.03. The value for GGCAGAGCUCUACACUGCGUGGCAAAGGGGCUGCCGCUAGACUGCC was 0.01; that for GGCAGAGCUCUACACAACGUGGCAAAGUGGCUGUGGCCAGACUGGC was 0.01; that for GGCAGAGCUCUACACAGCAUGGCAAAGUGGCUGUGGCUGGACUGCC was 0.09. Turning to GGCAGAGCUCGACACAGCGUGGCAAAGUGGCGGCAGUUAGACUGCC, the self-cleavage came to 0.02. Take GGCAGAGCUCUACACAGCGUUGCAAGGUGGUUGUGGCUAGACUGUC: the self-cleavage was 0.08. The value for GGCAGAGCUCUGCACAGCGUGGCAAAGUGGCUGUGGCUAGACUUCC was 0.02; that for GGCAGAGCUCUACACAGCGUGGCAAAGUAGCCGUGGCUAGACUGCC was 0.06; that for GGCAGAGCUCUACACAGCGUAGCAAAGUGGCUGUGGCUAGAUUGCC was 0.05.

For GGCAGAGCUCGACACAGCGUGGCAAAGUGGCUGUGACUAGCCUGCC, the self-cleavage worked out at 0.01. Turning to GGCAGAGCUCGACACAGCGUGGCAAAGUUGCUGUGGCUAGACCGCC, the self-cleavage is 0. The value for GGCAGAGCUCUACACAGCAUCGCAAAGUGGCUGUGGCUAUACUGCC was 0.02. For the variant GGCAGAGCUCUACACAGCGUGACAAAGUGGCUGUGGCUAGGGUGCC, the self-cleavage was 0.02. Next, GGCAGAGCUCUAAAGAGCGUGGCAAAGUGGCUGUGGAUAGACUGCC: 0.01; GGCAGAGCUCUACACAGCGAAGGAAAGUGGCUGUGGCUAGACUGCC: 0.2.

As for GGCAGAGCUCUACACAGCGUGGCAAAGUGGCUGUGCCUAGACUGCU, the self-cleavage was determined as 0.03. The value for GGCAGAGCUCUACACAGCGUGGCAAAGUGGCUGUUGCUAGCCUGCC was 0; that for GGCAGAGCUCUACACAGCGUGGCAAAGUUGCCGUGGCUAGACGGCC was 0; that for GGCAGAGCUCUUCACAGUGUGACAAUGUGGCUGUGGCUAGACUGCC was 0.04. Next, GGCAGAGCUCGACACAGCGUGGCAAAGUGGCUGUCGGUAGACUGCC: 0.06.

With GGCAGAGCUCUACACUGCGUGGCAAAGUGGCUGGGACUAGACUGCC, the self-cleavage was determined as 0.01.

Take GGCAGAGCUCUACACGGAGGGGCAAAGGGGCUGUGCCUAGACUGCC: the self-cleavage amounted to 0.01. For GGCAGAGCUCUACACAGCAGGGCAAAGAGGCUGUGGCUAGCCCACC, the self-cleavage is 0. For GGCAGAGCUCUACACAGCGUGGCAAAGUGGCUGUGACUAGAAUGAC, the self-cleavage turned out to be 0.01.

Take GGCAGAGCUCUACAAAGCGUGCCAAAGUGGCUGUUGCUAACCUGCC: the self-cleavage was found to be 0. Next, GGCAGAGCUCUACUUAGCGUGGCAAAGUGGCUGUGGCUAGACUGCC: 0.03; GGCAGAGCUCUACACAGCGGGGCAAAGUGGCUCUGGCUAAACUGCC: 0; GGCAGAGCUCUACCCAGCGCGGCAAAGUGGCUGUGGCUAGACUGCC: 0.03. The value for GGCAGAGCUCUACACAGCCUGGGGAAGUCGCUUUGGCUAAACUGCC was 0.04; that for GGCAGAGCUCUACAUAACCUGGCAAAGUGGCUGUGGCUAGACUGCC was 0.02. Turning to GGCAGAGCUCGACACAUAGGGCCAAAGUGGCUGUGGCUAGACUGCC, the self-cleavage came out at 0.03. Next, GGCAGAGCUCUACGCAGCGUGGCAAAGUAGCUGUGGUUAGACUGCC: 0.02; GGCAGAGCUCUGCACAGCGUGGCAAAGUGCCUGUGGCUAGACAGCC: 0.01; GGCAGAGCUCUUCACAGCGUGGCAAAGUGGGUGUGGCUAGACUGCC: 0.02.

As to GGCAGAGCUCUACUGAGCGUUGCAAAGUGGCUGUGGCUAGACAGCC, the self-cleavage is 0. The value for GGCAGAGCUCUACACAGCUUGGCCAAGUGGCUGUGGCUAGACUGCC was 0.07; that for GGCAGAGCUCUACACAGCGUGGCAAAUUGGCUGUGGCUAAACUGCC was 0.04. The value for GGCAGAGCUCUAUUCAGCGUGGGAAAGUAGCUGUGGUUAGACUGCC was 0.01; that for GGCAGAGCUCUAGACAGCGUGGCUAAGUGGCUCUGGCUAAAUUGCC was 0; that for GGCAGAGCUCUACAUAGCGUGGCAAAGUGGCUGUCGCUAGAUUGCC was 0.02. The value for GGCAGAGCUCUACACACCGUGGCAAAGUAGCUGUGGCUAGACUGCC was 0.02; that for GGCAGAGCUCGACACAGCGUGGCAAAGUGCCUGUGGCAAGACUGAC was 0.01; that for GGCAGAGCUCUACACAAUGUGGCAAAGUGGCUGUGGCUAGACUGCG was 0.03. Regarding GGCAGAGCUCGACACAGCGUGGCAAAUUGCCUGAGGCUAGACUGCC, the self-cleavage was determined as 0.03. Next, GGCAGAGCUCUACACGCAGUGGCAAACUGGCUGUGGCUAGACUGGG: 0.01; GGCAGAGCUCGACACAGCGCGGCAAAGAGGAUGUGGCUAGACUGCC: 0.03; GGCAGAGCUCUACACAGCUUUGCAAAGAGCCUGCGGCUAGACUGCC: 0. The value for GGCAGAGCUCUACACAGGGUGGCAAAGUGGCUGUAGCUAGAAUGCC was 0.01. Next, GGCAGAGCUCUACACAGCCUGGGAAAGUGGCUGUGGCUAGACUGCG: 0.24.

On to GGCAGAGCUCGACACAGCGUGGCAAAGUUGCUGUGGCUGAACUGCC, for which the self-cleavage was determined as 0.04. With GGCAGAGCUCGACACACCGUGGCAAAGUGGCUGUGGCUAGACGGCA, the self-cleavage came to 0.01. Take GGCAGAGCUCUACACAGCGCGGCAAAGUGGCUGUGGCUAGACUACC: the self-cleavage amounted to 0.01.

For the variant GGCAGAGCUCUACACAGCGUGGCAAAAUGGCUGUGGCUAUACUGCC, the self-cleavage is 0.02.

In the case of GGCAGAGCUCGACACAGCGGGGCAAAGUGGGUGUGGGCAGGCUGCC, the self-cleavage came out at 0.04. Regarding GGCAGAGCUCUACACAGCGUGGCCAAGUUGCUGUGGCUAGACUGAC, the self-cleavage is 0. The value for GGCAGAGCUCUAUACAGCGUGGUAAAGUGGCUGUCGCUAAACUGAC was 0; that for GGCAGAGCUCUUCACAGCGUGGCAAAGUGGCUGUGCCUACACUGCA was 0.

For the variant GGCAGAGCUCGACACAGCGAGACAAAGUGGCUGUGGCUAGACUGCC, the self-cleavage amounted to 0.01. Next, GGCAGAGCUCUACACAGCGGGGCAAAGUGGCUUUGGCUAGUCUGCC: 0.03; GGCAGAGCUCUACACAGCGGGGCAAAGUGUCGGUGGCUAGACUGCC: 0.32.

Regarding GGCAGAGCUCUCCACAGCGUGGUAAAGUGGCUGUGGCUAGACUGCC, the self-cleavage was 0.01. Next, GGCAGAGCUCUACACAGCGUUGCAUAGUGGCUGUGGCUAGACUGCC: 0.1. Turning to GGCAGAGCUCUAUGCAGAGUGGCAAAGUGGCUAUGGAUACACUGCC, the self-cleavage came out at 0.01.

GGCAGAGCUCUGCACAGCGUGGGAAAGAGGCUGUGGCUAGACUGCC: the self-cleavage came to 0.01. Next, GGCAGAGCUCGACACAGCGUGGCAAAGUGACUGUGGCUAGACUGCA: 0.03; GGCAGAGCUCUACACAGCGCGGCAAAGUCGCUGUGGCUAGACUGCA: 0.06; GGCAGAGCUCUAUACAGCGUGGCAACGUUGCUGUGGCUAGACUGCC: 0.05. The value for GGCAGAGCUCUACACAGCGCGCCAAAUUUACUGUGGCUAGACUUCC was 0.01; that for GGCAGAGCUCUACACACCGUGGCAAAGUGGCUGUGGCGAGACUGCC was 0. Next, GGCAGAGCUCGACACAGCGGGGCAAAGAUGCUGUGGCUAGACUGCC: 0.01; GGCAGAGCUCUACACAGCGCGGCAAAGUGGCUCUGGCUAGACUGCC: 0; GGCAGAGCUCUACACAGCGUGGCAAAGUGGCUGUUGCGCGACUGCC: 0. As to GGCAGAGCUCUUAACAGCGUUACAAAGUGGCUGUGGCUAGACUGCC, the self-cleavage is 0.04.

In the case of GGCAGAGCUCGACACAGCGUGGCAAACUUGCUGUGGCUAGACUGCC, the self-cleavage was 0.01. With GGCAGAGCUCUACACAGCGUGGCAAGGUGGCUGUGACUAGACUGGU, the self-cleavage came out at 0. Next, GGCAGAGCUCUACACAGCGUGGCAUAGUGGCUGUGGUUAGACUGCC: 0.02; GGCAGAGCUCUACACAUCGUGGAAAAGUGGCUGUGGCUAGACUGCC: 0.18. The value for GGCAGAGCUCUAAAUAGCGUGGCAAAGUGGCUGUGUCUAGUGUGCC was 0.01; that for GGCAGAGCUCGACACAGCGUUGCAAAGUGGCUGUGGUUUGACUGAC was 0.01; that for GGCAGAGCUCUUCCCAGCGUGGCAAAGUUGCUGUGGCUAGACUGCC was 0.03. Next, GGCAGAGCUCUACACUACGGGGCAAACUGGCUGUGGCUUGACUGCC: 0.01. In the case of GGCAGAGCUCUAAACAGCGUGGCAAAAUAGCUGUGGCUAGACUGCC, the self-cleavage turned out to be 0.01.

Turning to GGCAGAGCUCUCCACAGCGUGGCAAAGUGGCUGUGGCUAGACUGCG, the self-cleavage was 0.05. The value for GGCAGAGCUCUACACAGCGUGGCAAAGUGUCUGUUGCUAGUCUGCC was 0.02. In the case of GGCAGAGCUCUACACAGUGUGGCAAAGCGGCUGUGGCUAGACUGCC, the self-cleavage came out at 0.04.

In the case of GGCAGAGCUCUACACAGCGUGGCAAAGUAGCUGUUGCUAGACUGCC, the self-cleavage came to 0.01. The value for GGCAGAGCUCUACACAGCGUGGCGUAGUGGCUGUGGCUACACUGCC was 0.01; that for GGCAGAGCUCUACACAACCUGGCAAAGUGGUUGUUGCUAGACUGCC was 0.02. In the case of GGCAGAGCUCUCCAGAGCGUGGCAAAGUGUCUGUGGCUAGACUGCC, the self-cleavage is 0. Next, GGCAGAGCUCUACACAACGUGGCAAGGUGGCUGUGGCCAGACUGCC: 0; GGCAGAGCUCUACACAGCGUGGCAAAGUAGCUGUGGCUAAACUGCU: 0.03.
